Measurements: the RNAGym collection of RNA variant scans (doi:10.1101/gad.245936.114)
Variants at the background level are over-represented here.

B1: tRNA (parent)
chain: CUCUCGGUAGCCAAGUUGGUUUAAGGCGCAAGACUUUAAUUUAUCACUACGAAAUCUUGAGAUCGGGCGUUCGACUCGCCCCCGGGAGAUUUUUUCCUCGAGCAA

Variants of: B1
Experiment: nonsense suppression (GFP-seq) (ratio to wild type); higher = more function; SUP4oc tRNA, yeast GFP reporter sort-seq
Procedure, shortened: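 To measure nonsense suppression, tRNA variants from a library carrying ~3% random mutations were integrated into the yeast genome alongside RFP and a GFP ochre reporter under galactose control. Growth took place in raffinose/galactose medium supplemented with 80 mg/L adenine, followed by sorting into GFP/RFP bins and Illumina sequencing of each bin (phred ≥30). For each variant with ≥100 reads and ≥30 cells, the bin median GFP/RFP values were weighted by its estimated cell share per bin and referenced to the unmutated parent tRNA.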

Nonsense suppression, 0.159:
G10U C27A G85A

Nonsense suppression, 0.0324:
G10A G78U

Nonsense suppression, 0.0314:
G10A G78A

Nonsense suppression, ≤ 0.026:
G10C A33U
G10U U55C G78C A89C
G10C G61U A74G
C11G
C11A
G10U C72A U76C G84A
C11A G85A
C11A C29A U63C
C11A A60U G84C
C11G A24G A33G C34A G85A
G10U G66C G84C
G10U G19C A23C C79G
G10A C56A U57C G86A
C11A A14U
G10A U55C
G10A G61C
G10A G61A
G10C G67C U70A
G10U U57C G73C U76G
G10U U63C G78A
C11G A30G G67U
G10A G84A A89C
G10A G88A A89G
G10U C27G
G10U G25A
C11A A13G
C11A U22C C77U G86C
G10A A89C
G10U G18A C75U
G10C U71A A74U A87C
C11A U21A G32U
G10C G25U C27G A33C G86A
C11A G26U A30G
C11A C34U
C11A C34G
G10A U35C
G10A U35A
C11G A60U A74U
G10A G18U A74G
C11A G26U U70G
G10A U58C G88U
G10C G28A U70A C77U
G10U C56U
G10U G69C G85C A87G
G10C U35G
G10U A24G A33G
C11A C12A G15C C56U
G10A U22G G25A G61A G66C
G10U U58G G86C
C11A G28U A62G U70G
C11A C56G G66U C81U
C11G A24U A62C C68G
G10U A60C A87U
G10A A62G C64A
C11G A33G C64A U76G
G10C A14C A60C
G10U U17A
G10C C27G G73C
G10C U55C G67U
G10U C11U C27A C34G
C11A U17A G26U
G10U U20A A54U C82A
C11A G32C G61U
G10U G32C G73U
C11A G15A A87C
G10C A54U
G10A U70C G78C A89C
C11A G18C C34U U55C
G10A A24U G73A
C11A A23G
C11A A14C U17C U20C
G10C C64A C83G
G10C G18C
G10C C79A
G10A C80G A89C
G10C C56G U71G
G10U A24G A31C A87C
C11G A33G
G10U G61C G86U
G10C C72G
C11A A14C U22G G66C
G10U U55A A60U
G10U U22C C29U C79G
G10U G32C
G10U G32A
C11A G61A C83U G86A G88A
G10U A60C G61A C72A G88U
G10C U35C G73U G78C
G10U G66U G86C
C11A G69A
C11G A13U U17A
C11A U76C
C11A U76G
C11A G26U A62G U63G G67U A74U
C11A G26U A62G U63G G67U A74G
G10C G59A U76A C77G
G10C C34G A60G U63C G85A
G10U U57C G67A A87G
G10U A87C
G10U U17G G25C
C11G A13G G85A
C11G A23U G73U C81A G88A
G10U A13C U57A C75G
C11A U76A C82A
G10C U58A A62U
C11A A14G A30U G66U A87C
C11A C27U C79U
G10C G61C
G10A G73C
C11A A31G U76G
G10U A30U U63G
C11A U71G
C11A G15C U22A
C11A G26C G66U
G10U A23G A62U
C11G A13U G59A
C11A G26C U55G G85A
G10C A14G G18A G67A
C11A G67C
G10U G59A
G10U G59C
G10U G18U U58G A87U
G10C C77U
G10C G26A U35G
G10A A33U U70A
G10U G67C G88U A89U
G10C G28A A54U
C11A G26A G88U
G10A U16C C79G
G10A U21G G67C C79A
G10U G61A U71G
G10C U21A C72U A87U
C11A C29U A33U G85C
C11A A31U C64G
G10U G26U G32U C56G G59C G78A C81G G84C
G10U G59A A87C
G10U G18C C64A G66A
G10A A74C
C11A G19A C72G
G10C A13U G25A
G10C C11A C56A G78C
C11A C29U C34G G84U
G10C G15U A31G U35G U70A
G10U C34A
G10C C29G A74G C80U
C11G A13U A62C
C11A G18U U57C G61U
G10C C11A G69U U70G
G10C G73C A87U
G10U G85C
G10A U22A A31G U70A
G10A C12A A23C C29U G69C
G10C G32U U63G
G10U U22C A31G G78U
G10C G67C U71G
G10U A14G
C11G A24C
G10A G65C G66C G78A
G10C C12A U22G U57A
G10U A54C U63C U76C
G10C A54C G61U G67U C72G
G10A G15U A89G

Nonsense suppression, 0.0296:
G10U A13C

Nonsense suppression, 0.119:
G10U C27A
